Assay results from PubChem BioAssay AID686971 (National Center for Advancing Translational Sciences (NCATS), 2013).
Out of some 360,000 compounds screened, about 7,500 (2.1%) were called active. Inconclusive means that the source gave no clear call. Such entries were picked first, then a sample of the others. The call rests on the fitted dose curve; in most records, active means well fitted cell-killing curve with a large enough effect; inconclusive means small, poorly fitted or top-dose-only effect, or effect the other way, or another doubt; inactive means no such curve, though single readings can be large or run the other way. No potency is given beside an inconclusive call; the fits are too rough.

Experiment: qHTS for induction of synthetic lethality in tumor cells producing 2HG: qHTS for the HT-1080-IDH1KD cell line;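 on activity, negative = toxicity: 0% = DMSO wells and -100% = cell-free medium wells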
Details: HT-1080 IDH1 knockdown viability, ATP luminescence, 48 h; activity, negative = toxicity: at 46.1 µM (top of the series) unless noted
Method in brief: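 In this qHTS, HT-1080 cells depleted of IDH1 are exposed for 48 h at 37 °C to compound titrations. Toxicity is scored from CellTiter-Glo luminescence, with DMSO as full viability and medium alone as none.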
Potency means the concentration at half of the fitted maximal effect; tags describe the fitted curve by direction and shape.

SMILES | Potency | activity, negative = toxicity
CCOCCCNC(=O)c1c(-c2ccccc2)noc1C | inactive | –
O=C(C[C@H]1C/C=C\C[C@H](NC(=O)OCC2c3ccccc3-c3ccccc32)C(=O)OC[C@H](Cc2ccccc2)NC1=O)N[C@H](CO)Cc1ccccc1 | inconclusive [cytotoxic, single point] | –
CN(c1cccc(NC(=O)COc2ccc(Cl)cc2Cl)c1)S(C)(=O)=O | inconclusive [cytotoxic, single point] | –
COc1cc(C(O)c2nc(-c3ccc(F)c(Cl)c3)cs2)ccc1F (centres undefined) | inconclusive [cytotoxic, single point] | –
CCc1nc2c(OCc3ccc(Cl)cc3)cccn2c1N(C=O)Cc1ccc(OC)cc1 | inconclusive [cytotoxic, single point] | –
C=C1CCC[C@]2(C)C[C@H]3OC(=O)C(CN(C)CC(OC)OC)[C@H]3CC12 (some centres undefined) | inconclusive [cytotoxic, single point] | –
COc1ccc(CNC(=O)/C=C/c2ccccc2[N+](=O)[O-])cc1 | inactive | –
COc1cc2c(cc1NC(=O)CC1SC(N3CCCC3)=NC1=O)oc1ccccc12 (centres undefined) | inconclusive [cytotoxic, single point] | –
N/C(=N\NC(=O)c1sccc1OCc1ccc(Cl)cc1Cl)c1ccccn1 | inconclusive [cytotoxic, single point] | –
CC(Oc1cccc(Cl)c1)C(=O)NCCCCc1ccccc1 (centres undefined) | inconclusive [rising, partial curve] | –
Brc1ccc2c(c1)C(C1=NCCN1)c1ccccc1CS2 (centres undefined) | active: 1.03 µM | –
Oc1ccccc1C=Nc1ccccc1-c1nc2ccccc2[nH]1 | inconclusive [cytotoxic, partial curve] | –
Cc1ccc(-n2[nH]c(C)c(C=Nc3ccc4[nH]c(=O)[nH]c4c3)c2=O)cc1 | inconclusive [cytotoxic, partial curve] | –
O=C(Nc1ccc(F)c(Cl)c1)C1Cc2c(-c3ccc(Cl)cc3)ccnc2O1 (centres undefined) | inconclusive [cytotoxic, single point] | –
COC(=O)CCn1c(C)cc(C(=O)COc2ccccc2C(N)=O)c1C | inconclusive [cytotoxic, single point] | –
Oc1ccc(-c2nnc(Nc3ccccc3)c3ccccc23)cc1 | inactive | –
CCc1c(O)nc(SCC(=O)Nc2nc3ccccc3s2)n(C2CCCCC2)c1=O | inconclusive [cytotoxic, partial curve] | –
O=C(OCC(=O)N1N=C(c2ccc(Cl)cc2)CC1c1ccco1)c1cccnc1 (centres undefined) | inconclusive [cytotoxic, single point] | –
COc1ccc(OC)c(CNS(=O)(=O)c2c(C)nc3scc(C)n3c2=O)c1 | inactive | –
CN(C)c1ccc(/C=N/Nc2nc3ccccc3o2)cc1 | inconclusive [cytotoxic, single point] | –
CC(C)C[C@@H](NC(=O)C1CCC(CNC(=O)[C@@H]2CCCN2C(=O)OC(C)(C)C)CC1)C(=O)O (some centres undefined) | inactive | –
COc1ccc(NC(=O)/C=C/c2ccc(OC(F)F)cc2)cn1 | inconclusive [cytotoxic, partial curve] | –
Oc1c(C(Nc2nccs2)c2ccc(C(F)(F)F)cc2)ccc2cccnc12 (centres undefined) | inconclusive [cytotoxic, partial curve, poor fit] | –

SMILES | Potency | activity, negative = toxicity
Cc1ccc(N(NC(=O)C(O)(c2ccccc2)c2ccccc2)C(=O)CCl)cc1 | active: 5.8 µM | –
Cn1c2c(c3cc([N+](=O)[O-])ccc31)CCCC2 | inactive | –
COc1ccccc1C(=O)Nc1ccccc1N1CCN(C(=O)c2ccc(Cl)cc2)CC1 | inactive | –
O=C(NC1CC1)c1ccc(CSCc2ccccc2Cl)o1 | inconclusive [cytotoxic, single point] | –
COc1ccc2nc(C)cc(NCc3ccc(F)cc3)c2c1 | active: 16.4 µM | –
NC(=NCCc1c[nH]c2ccccc12)NC(=O)c1ccc(Cl)cc1 | inconclusive [cytotoxic, single point] | –
CCC(=O)Nc1ccc2c(c1)OC[C@@H](C)NC[C@@H](C)[C@@H](OC)CN(C)C2=O | inconclusive [rising, single point] | –
COc1ccc(OC)c(/C=N/NC(=O)C(=O)N2CCCC2)c1 | inactive | –
COc1ccccc1C(=O)NCCC(=O)NCCc1ccccc1 | inactive | –
O=C(Nc1ccc2c(c1)CCO2)Nc1nnc([C@H]2C[C@H](O)[C@@H](CO)O2)s1 | inconclusive [rising, single point] | –
Cc1ccc(C)c(Cn2c3ccccc3c3cnn(CC(=O)NCCCN4CCCCC4)c(=O)c32)c1 | inconclusive [cytotoxic, single point] | –
Cc1ccc(S(=O)(=O)N(CC(=O)Nc2ccc(Cl)c([N+](=O)[O-])c2)C2CCCCC2)cc1 | inactive | –
COc1ccccc1N1CSC2=C(C#N)C(c3ccc(SC)cc3)CC(=O)N2C1 (centres undefined) | inactive | –
CCCc1cc(NC(=O)CCl)n(-c2ccccc2)n1 | inconclusive [cytotoxic, partial curve] | –
O=C(COC(=O)c1ccc2c(c1[N+](=O)[O-])C(=O)c1ccccc1C2=O)NC1CC1 | inconclusive [cytotoxic, single point] | –
C/C(O)=C(\C#N)c1nnc2n1CCCCC2 | – | inactive: 1.3% [at 9.24 µM]
Fc1ccc2c(c1)c1n[nH]c(=S)nc1n2CCc1ccccc1 | inactive | –
COc1ccc(CC2(CO)CCN(C(C)Cc3ccc(Cl)cc3)CC2)cc1 (centres undefined) | inconclusive [cytotoxic, single point] | –
CC(C)(C)NC(=O)Cn1cc(C#N)c2cc(Br)ccc21 | inconclusive [cytotoxic, single point] | –
COc1ccc(C(=O)CSc2nn3c(=O)c(C(C)(C)C)nnc3s2)cc1 | inconclusive [cytotoxic, single point] | –
COC(=O)COc1cccc2c(=O)n(CC(=O)Nc3ccc4c(c3)OCCO4)ccc12 | – | inconclusive: -12.1% [cytotoxic]
COc1ccc(/C=C2/CCCC(CN(C)C)C2=O)cc1 (centres undefined) | active: 8.2 µM | –
CCCCNC(=O)c1ccc2c(c1)ncn2C1CCCCC1 | inactive | –

SMILES | Potency | activity, negative = toxicity
CC1(C)Cc2c(c(N3CCOCC3)nc3sc(C#N)c(N)c23)CS1 | inactive | –
C[C@@H]1CN([C@@H](C)CO)C(=O)CCCn2nncc2CO[C@@H]1CN(C)S(=O)(=O)c1ccc(C#N)cc1 | inactive | –
Cc1cc(=O)oc2ccc(OCC(=O)N(Cc3ccc(F)cc3)Cc3ccco3)cc12 | inconclusive [cytotoxic, single point] | –
Cc1ccc(CN(C(=O)c2cc(=O)c3cc(Cl)c(C)cc3o2)C2CCS(=O)(=O)C2)cc1 (centres undefined) | inconclusive [cytotoxic, single point] | –
Cc1nnsc1S(=O)c1ccc(Cl)c(Cl)c1 (centres undefined) | inconclusive [cytotoxic, single point] | –
O=C(O)c1cccc(NC(CNS(=O)(=O)c2ccc(Cl)cc2)c2ccccc2)c1 (centres undefined) | inactive | –
COc1ccccc1CCn1cnc(Cc2cccc(F)c2)c1C(C)C | inconclusive [cytotoxic, single point] | –
Cc1cccc(C)c1NC(=O)c1nc(S(=O)(=O)Cc2ccccc2)ncc1Cl | active: 8.2 µM | –
COC(=O)C1=CN(c2ccc3c(c2)OCO3)C(N)=C(C#N)C1c1ccccc1 (centres undefined) | active: 11.6 µM | –
CCOc1ccc(CCN2C(=O)C(=O)N([C@@H](CC(C)C)CN3CCC[C@@H]3CN3C(=O)C(=O)NC[C@@H]3CC(C)C)C[C@@H]2Cc2ccccc2)cc1 | inconclusive [cytotoxic, single point] | –
O=C1NC[C@@H](CCCCN2CCN(Cc3ccccc3)C(=O)C2=O)N(CC2CCCCC2)C1=O | inactive | –
C/C(CC(=O)NC(C)(C)C)=N\NC(N)=S | inactive | –
C[C@@]12C(=O)Nc3cc(Cl)ccc3C(=O)N1[C@H]1c3cc(Cl)ccc3OC[C@@H]1[C@@H]2c1ccccc1 | inconclusive [cytotoxic, single point] | –
c1ccc(-c2oc3ncnc(NCCCn4ccnc4)c3c2-c2ccccc2)cc1 | inconclusive [cytotoxic, single point] | –
COc1cc(OC)c(C2=NOC(C(=O)NCc3cccs3)C2)cc1Cl (centres undefined) | active: 4.61 µM | –
C=CCNc1nc(-c2sc(NC(=O)C(C)(C)C)nc2C)c(-n2cc(-c3ccccc3)nn2)s1 | inconclusive [cytotoxic, single point] | –
Cc1[nH]n(-c2ccc([N+](=O)[O-])cc2)c(=O)c1C=NCCc1ccc(S(N)(=O)=O)cc1 | inconclusive [cytotoxic, partial curve] | –
CCN1/C(=C2/SC(=S)N(NC(C)=O)C2=O)Sc2ccc(OC)cc21 | inactive | –
C/C(=N\NC(=S)NCCc1ccccc1)c1ccc(Cl)cc1Cl | inconclusive [cytotoxic, single point] | –
O=C(C1CCN(Cc2ccc(Cl)cc2)CC1)N1CCN(C(c2ccccc2)c2ccccc2)CC1 | inconclusive [cytotoxic, single point] | –
O=C(N/N=C/c1cc(Cl)ccc1O)C(=O)Nc1ccccc1OC(F)(F)C(F)F | inconclusive [cytotoxic, full curve] | –
CCCOc1ccc(C(=O)N2CCCc3ccccc32)cc1 | inactive | –
COc1ccc(S(=O)(=O)N2Cc3ccccc3CC2C(=O)Nc2nccs2)cc1 (centres undefined) | inconclusive [cytotoxic, single point] | –
